From patent EP2161029A1, “Composition comprising peptides” (Unilever N.V., priority 2008, dated 2010)
Not every detail of the peptide structures is certain; ends, links or a residue may be inferred. Peptide text beside a SMILES is read from it.

Tested on: ACE
Test: ACE inhibition, HPLC-UV at-line assay with substrate HHL
Type: biochemical
Settings: for residual ACE activity (in % of control): substrate Hippuryl-His-Leu, at-line HPLC-UV assay, mean; for IC50: dipeptide 2.5 - 500 µM, substrate Hip-His-Leu (1 mM), n=2, read-out: IC50 means ± SE

Row | Compound | residual ACE activity (in % of control) (20 µM dipeptide) | residual ACE activity (in % of control) (200 µM dipeptide) | IC50 [µM]
1 | CC(C)[C@H](NC(=O)CN)C(=O)O [GV, Gly-Val] (H-Gly-Val-OH) | 54.6 % of control | 49.00 % of control | –
2 | N[C@@H](CCC(=O)O)C(=O)N[C@@H](Cc1c[nH]c2ccccc12)C(=O)O [Glu-Trp] (H-Glu-Trp-OH) | – | – | 21
3 | C[C@H](NC(=O)[C@@H](N)Cc1c[nH]cn1)C(=O)O [HA] (H-His-Ala-OH) | 99.6 % of control | 94.25 % of control | –
4 | N[C@@H](Cc1c[nH]cn1)C(=O)N[C@@H](CS)C(=O)O [HC] (H-His-Cys-OH) | 97.9 % of control | 82.40 % of control | –
5 | N[C@@H](Cc1c[nH]cn1)C(=O)N[C@@H](CC(=O)O)C(=O)O [HD] (H-His-Asp-OH) | 93.9 % of control | 95.85 % of control | –
6 | N[C@@H](Cc1c[nH]cn1)C(=O)N[C@@H](Cc1ccccc1)C(=O)O [HF] (H-His-Phe-OH) | 98.8 % of control | 83.80 % of control | –
7 | N[C@@H](Cc1c[nH]cn1)C(=O)NCC(=O)O [HG] (H-His-Gly-OH) | 100.0 % of control | 94.10 % of control | –
8 | CC[C@H](C)[C@H](NC(=O)[C@@H](N)Cc1c[nH]cn1)C(=O)O [HI] (H-His-Ile-OH) | 97.2 % of control | 91.75 % of control | –
9 | CC(C)C[C@H](NC(=O)[C@@H](N)Cc1c[nH]cn1)C(=O)O [HL] (H-His-Leu-OH) | 99.6 % of control | 88.35 % of control | –
10 | CSCC[C@H](NC(=O)[C@@H](N)Cc1c[nH]cn1)C(=O)O [HM] (H-His-Met-OH) | 97.3 % of control | 96.65 % of control | –
11 | N=C(N)NCCC[C@H](NC(=O)[C@@H](N)Cc1c[nH]cn1)C(=O)O [HR] (H-His-Arg-OH) | 97.6 % of control | 91.10 % of control | –
12 | N[C@@H](Cc1c[nH]cn1)C(=O)N[C@@H](CO)C(=O)O [HS] (H-His-Ser-OH) | 97.8 % of control | 96.80 % of control | –
13 | C[C@@H](O)[C@H](NC(=O)[C@@H](N)Cc1c[nH]cn1)C(=O)O [HT] (H-His-Thr-OH) | 98.8 % of control | 99.15 % of control | –
14 | CC(C)[C@H](NC(=O)[C@@H](N)Cc1c[nH]cn1)C(=O)O [HV] (H-His-Val-OH) | 99.9 % of control | 97.50 % of control | –
15 | N[C@@H](Cc1c[nH]cn1)C(=O)N[C@@H](Cc1c[nH]c2ccccc12)C(=O)O [HW] | 81.3 % of control | 41.62 % of control | –
16 | CC[C@H](C)[C@H](N)C(=O)N[C@@H](C)C(=O)O [IA] (H-Ile-Ala-OH) | 98.3 % of control | 89.70 % of control | –
17 | CC[C@H](C)[C@H](N)C(=O)N[C@@H](CC(=O)O)C(=O)O [ID] (H-Ile-Asp-OH) | 100.0 % of control | 99.90 % of control | –
18 | CC[C@H](C)[C@H](N)C(=O)N[C@@H](CCC(=O)O)C(=O)O [IE] (H-Ile-Glu-OH) | 96.8 % of control | 99.95 % of control | –
19 | CC[C@H](C)[C@H](N)C(=O)N[C@@H](Cc1ccccc1)C(=O)O [IF, Ile-Phe] (H-Ile-Phe-OH) | 73.0 % of control | 28.55 % of control | 92
20 | CC[C@H](C)[C@H](N)C(=O)NCC(=O)O [IG] (H-Ile-Gly-OH) | 97.2 % of control | 93.75 % of control | –
